Test results from the antibiotic and cytotoxicity screens of Wong et al. (2023).
The list shows a part of the results.

Key:
HSkMC = human skeletal muscle cells; assay: cytotoxicity call (relative viability < 0.9); conditions: 10 µM
HepG2 = assay: cytotoxicity call (relative viability < 0.9); conditions: 10 µM
S. aureus RN4220 = assay: growth inhibition call (relative growth <= 0.2); conditions: 50 µM

Which cytotoxicity call (HSkMC) does the source give for `O=C(O)CCSc1n[nH]c(=O)[nH]c1=O` here?
The cytotoxicity call was “inactive”.

And the cytotoxicity call (HepG2)?
Its cytotoxicity call is “inactive”.

And the growth inhibition call (S. aureus RN4220)?
Its growth inhibition call is “inactive”.

With `CS(=O)(=O)[O-].C[n+]1ccccc1C=NO` as the compound, how does the cytotoxicity call (HSkMC) read?
The cytotoxicity call was “inactive”.

And the cytotoxicity call (HepG2)?
Its cytotoxicity call is “inactive”.

And the growth inhibition call (S. aureus RN4220)?
Its growth inhibition call is “inactive”.

How did the cytotoxicity call (HSkMC) turn out when `CN1CCN(C(=O)C[C@H]2CC[C@H]3[C@H](COc4ccc(NC(=O)c5ccc(F)c(F)c5)cc4C(=O)N3C)O2)CC1` was run?
The cytotoxicity call was “inactive”.

What about the cytotoxicity call (HepG2) of the same compound?
The cytotoxicity call was “inactive”.

And the growth inhibition call (S. aureus RN4220)?
Its growth inhibition call is “inactive”.

Which cytotoxicity call (HSkMC) does the source give for `C[C@H](CO)N1C[C@H](C)[C@@H](CN(C)S(=O)(=O)c2cccs2)Oc2c(NC(=O)C3CCOCC3)cccc2C1=O` here?
Its cytotoxicity call is “inactive”.

And the cytotoxicity call (HepG2)?
Its cytotoxicity call is “inactive”.

And the growth inhibition call (S. aureus RN4220)?
The growth inhibition call was “inactive”.

Which results are given for `O=C(C[C@H]1CC[C@H]2[C@@H](COC[C@H](O)CN2S(=O)(=O)c2ccc(F)cc2)O1)N[C@@H]1CCN(Cc2ccccc2)C1`?
cytotoxicity call (HSkMC): inactive; cytotoxicity call (HepG2): inactive; growth inhibition call (S. aureus RN4220): inactive

Which cytotoxicity call (HSkMC) does the source give for `COc1ccc([Si](C)(C)[C@@H]2[C@@H](CCn3cc([C@H](O)c4ccccc4)nn3)O[C@]3(C(=O)N(c4ccccc4)c4ccccc43)[C@H]2C)cc1` here?
The cytotoxicity call was “inactive”.

What about the cytotoxicity call (HepG2) of the same compound?
Its cytotoxicity call is “inactive”.

And the growth inhibition call (S. aureus RN4220)?
The growth inhibition call was “inactive”.

For `C[C@@H]1CN([C@H](C)CO)C(=O)c2cc(NS(=O)(=O)c3cccs3)ccc2O[C@@H](C)CCCCO[C@H]1CN(C)Cc1ccc(C(F)(F)F)cc1`, which cytotoxicity call (HSkMC) is on record?
Its cytotoxicity call is “inactive”.

And the cytotoxicity call (HepG2)?
The cytotoxicity call was “active”.

And the growth inhibition call (S. aureus RN4220)?
Its growth inhibition call is “inactive”.

`C[C@H](CO)N1C[C@H](C)[C@H](CN(C)Cc2ccccn2)Oc2ncc(C#Cc3ccc(F)cc3)cc2C1=O` was tested. Which cytotoxicity call (HSkMC) did it give?
Its cytotoxicity call is “inactive”.

What about the cytotoxicity call (HepG2) of the same compound?
Its cytotoxicity call is “inactive”.

What about the growth inhibition call (S. aureus RN4220) of the same compound?
Its growth inhibition call is “inactive”.

`C=c1nnsc1=C1NC(c2cc(C)on2)=NO1` was tested. Which cytotoxicity call (HSkMC) did it give?
The cytotoxicity call was “inactive”.

And the cytotoxicity call (HepG2)?
Its cytotoxicity call is “inactive”.

And the growth inhibition call (S. aureus RN4220)?
The growth inhibition call was “inactive”.

For `C[C@@H]1CN([C@@H](C)CO)C(=O)c2cccc(NS(C)(=O)=O)c2O[C@H]1CN(C)Cc1ccc(C(=O)O)cc1`, which cytotoxicity call (HSkMC) is on record?
The cytotoxicity call was “inactive”.

What about the cytotoxicity call (HepG2) of the same compound?
Its cytotoxicity call is “inactive”.

What about the growth inhibition call (S. aureus RN4220) of the same compound?
The growth inhibition call was “inactive”.

`O=C(NCc1ccc(F)cc1)[C@H]1[C@H](CO)[C@H]2Cn3c(cccc3=O)[C@@H]1N2C(=O)c1cnccn1` was tested. Which cytotoxicity call (HSkMC) did it give?
The cytotoxicity call was “inactive”.

And the cytotoxicity call (HepG2)?
The cytotoxicity call was “inactive”.

What about the growth inhibition call (S. aureus RN4220) of the same compound?
The growth inhibition call was “inactive”.

With `Cc1noc(C)c1S(=O)(=O)Nc1ccc2c(c1)CC(=O)N([C@H](C)CO)C[C@H](C)[C@H](CN(C)Cc1ccc(-c3ccccc3)cc1)O2` as the compound, how does the cytotoxicity call (HSkMC) read?
Its cytotoxicity call is “inactive”.

And the cytotoxicity call (HepG2)?
Its cytotoxicity call is “inactive”.

What about the growth inhibition call (S. aureus RN4220) of the same compound?
Its growth inhibition call is “inactive”.

What does the source list for `Cc1noc(C)c1S(=O)(=O)Nc1cccc2c1O[C@H](CN(C)C(=O)Nc1ccc3c(c1)OCO3)[C@H](C)CN([C@H](C)CO)C2=O`?
cytotoxicity call (HSkMC): inactive; cytotoxicity call (HepG2): inactive; growth inhibition call (S. aureus RN4220): inactive

What does the source list for `C[C@H](CO)N1C[C@H](C)[C@H](CN(C)S(C)(=O)=O)Oc2ncc(-c3cccc(C(F)(F)F)c3)cc2C1=O`?
cytotoxicity call (HSkMC): inactive; cytotoxicity call (HepG2): inactive; growth inhibition call (S. aureus RN4220): inactive

What does the source list for `Cc1noc(C)c1NC(=O)N(C)C[C@H]1Oc2ccc(NC(=O)C3CC3)cc2C(=O)N([C@H](C)CO)C[C@H]1C`?
cytotoxicity call (HSkMC): inactive; cytotoxicity call (HepG2): inactive; growth inhibition call (S. aureus RN4220): inactive

What does the source list for `CNC[C@@H]1OCCCC[C@H](C)Oc2ccc(NS(=O)(=O)c3cn(C)cn3)cc2C(=O)N([C@@H](C)CO)C[C@@H]1C`?
cytotoxicity call (HSkMC): inactive; cytotoxicity call (HepG2): inactive; growth inhibition call (S. aureus RN4220): inactive

With `Cc1ccc(S(=O)(=O)Nc2ccc3c(c2)C(=O)N([C@H](C)CO)C[C@H](C)[C@H](CN(C)Cc2ccc(Cl)c(Cl)c2)OCCCC[C@H](C)O3)cc1` as the compound, how does the cytotoxicity call (HSkMC) read?
Its cytotoxicity call is “inactive”.

What about the cytotoxicity call (HepG2) of the same compound?
The cytotoxicity call was “inactive”.

What about the growth inhibition call (S. aureus RN4220) of the same compound?
Its growth inhibition call is “inactive”.

`O=C(Nc1ccccc1)c1ccccc1O` was tested. Which cytotoxicity call (HSkMC) did it give?
Its cytotoxicity call is “inactive”.

What about the cytotoxicity call (HepG2) of the same compound?
The cytotoxicity call was “active”.

And the growth inhibition call (S. aureus RN4220)?
The growth inhibition call was “active”.

For `C[C@H]1CN([C@@H](C)CO)C(=O)c2cccc(NS(=O)(=O)c3ccc(Cl)cc3)c2O[C@H]1CN(C)Cc1ccc(C(F)(F)F)cc1`, which cytotoxicity call (HSkMC) is on record?
The cytotoxicity call was “inactive”.

And the cytotoxicity call (HepG2)?
Its cytotoxicity call is “inactive”.

And the growth inhibition call (S. aureus RN4220)?
The growth inhibition call was “inactive”.

What does the source list for `C[C@@H]1CN([C@H](C)CO)C(=O)c2cc(NC(=O)CCN3CCOCC3)ccc2O[C@H]1CN(C)Cc1ccc(C(=O)O)cc1`?
cytotoxicity call (HSkMC): inactive; cytotoxicity call (HepG2): inactive; growth inhibition call (S. aureus RN4220): inactive

What does the source list for `C[C@@H]1CN([C@@H](C)CO)C(=O)c2cc(NC(=O)Nc3ccc4c(c3)OCO4)ccc2O[C@@H](C)CCCCO[C@H]1CN(C)C(=O)c1ccccc1`?
cytotoxicity call (HSkMC): inactive; cytotoxicity call (HepG2): inactive; growth inhibition call (S. aureus RN4220): inactive

`C[C@H]1CN([C@@H](C)CO)C(=O)c2cc(C#CCc3ccccc3)cnc2O[C@@H]1CN(C)C(=O)C1CCOCC1` was tested. Which cytotoxicity call (HSkMC) did it give?
The cytotoxicity call was “inactive”.

And the cytotoxicity call (HepG2)?
The cytotoxicity call was “inactive”.

What about the growth inhibition call (S. aureus RN4220) of the same compound?
The growth inhibition call was “inactive”.

Which cytotoxicity call (HSkMC) does the source give for `C[C@@H](O)C#Cc1ccc2c(c1)O[C@@H](CN(C)C(=O)C1CCCCC1)[C@@H](C)CN([C@@H](C)CO)S2(=O)=O` here?
Its cytotoxicity call is “inactive”.

What about the cytotoxicity call (HepG2) of the same compound?
The cytotoxicity call was “inactive”.

What about the growth inhibition call (S. aureus RN4220) of the same compound?
The growth inhibition call was “inactive”.

How did the cytotoxicity call (HSkMC) turn out when `CCCc1nc(C(C)(C)O)c(C(=O)OCc2oc(=O)oc2C)n1Cc1ccc(-c2ccccc2-c2nn[nH]n2)cc1` was run?
The cytotoxicity call was “inactive”.

And the cytotoxicity call (HepG2)?
Its cytotoxicity call is “inactive”.

And the growth inhibition call (S. aureus RN4220)?
The growth inhibition call was “inactive”.

How did the cytotoxicity call (HSkMC) turn out when `Cc1noc(C)c1S(=O)(=O)N(C)C[C@@H]1OCCCC[C@H](C)Oc2ccc(NC(=O)Nc3ccc(C(F)(F)F)cc3)cc2C(=O)N([C@H](C)CO)C[C@H]1C` was run?
The cytotoxicity call was “inactive”.

What about the cytotoxicity call (HepG2) of the same compound?
The cytotoxicity call was “inactive”.

What about the growth inhibition call (S. aureus RN4220) of the same compound?
The growth inhibition call was “inactive”.
